# Laboratory results taken from the supplement of paper PMC7826260.
# The list shows a part of the results. Cleavage of a single-stranded DNA pool by Rep nickase domains was read by sequencing at 3 µM enzyme and 37 °C for 1 h; the strands have 90 letters, of which the middle is given. Uncut reads are compared with the no-enzyme pool on a log2 scale; the lower, the more was cut; hits are not called. Counts are relative to all reads; where an enzyme cuts many sequences, the uncut ones exceed 0.
# Tested on: T1, Rep nickase domain of tomato golden mosaic virus
# T1 sequence (residues 1-124 of Rep, tag left off): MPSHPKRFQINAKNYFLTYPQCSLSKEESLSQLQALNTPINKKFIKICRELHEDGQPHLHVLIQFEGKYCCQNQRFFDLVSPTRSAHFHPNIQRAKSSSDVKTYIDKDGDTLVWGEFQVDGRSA
# Experiment: uncleaved DNA left, log2 of reads against the no-enzyme library (log2 ratio); higher = less cleavage (more negative = more Rep cleavage of the k-mer); sequences stand for … in CTCGTCCG…ACCGGAGA
# Experimental: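 A pool of 90-nt single-stranded DNAs with seven random bases just before the constant AC of the nick site (name = the seven bases) was cut by 3 µM recombinant His6-SUMO-tagged Rep nickase domain (300 nM DNA, 50 mM HEPES pH 8.0, 50 mM NaCl, 1 mM MnCl2, 1 h, 37 °C, three replicates). Uncut DNA was amplified and sequenced.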
row,Sequence,uncleaved DNA left (log2)
1,TTGAGGT,0.00335
2,AGCCAAA,0.181
3,TTCCTTG,-0.0288
4,GGAACTT,-0.0115
5,GTGACGG,0.0156
6,TTTGCAC,-0.135
7,AAGTAGA,0.167
8,GGGATAC,0.0613
9,CGAATGT,-0.112
10,AACCGAC,0.153
11,CCGCATT,-0.191
12,GCTTGAT,0.0579
13,TCTTGGT,-0.232
14,GTGCTCA,-0.0141
15,AGTCTGG,0.00892
16,AATTTCG,0.0312
17,CGGTCGG,0.161
18,ATGGGGG,0.005
19,TTATAAT,-2.33
20,AAAAGGC,0.159

row,Sequence,uncleaved DNA left (log2)
1,TGTAAAC,0.0352
2,TCCCCTT,-0.0209
3,GACTGAC,0.0676
4,CTTAAGA,-0.0323
5,GCCCGCG,-0.141
6,GGTACCG,-0.046
7,CCGCCTT,-0.108
8,CCCCACC,-0.186
9,CACGTAC,-0.145
10,CAAAGCG,0.0316
11,CAACTGG,-0.0354
12,GAGGTCG,0.0849
13,CCTCCCA,-0.254
14,TCTTATC,-0.0579
15,GGAGAAT,0.0729
16,AGGTGAT,0.266
17,CCCGGTG,0.212
18,CAAGTGA,-0.0581
19,AGGTCGA,0.0431
20,CCAAGAG,-0.111
